Test results: PubChem BioAssay AID1508642 (National Center for Advancing Translational Sciences (NCATS), 2021)
Among all 43,000 compounds or so, about 200 (0.47%) were called active. Inconclusive results (about 12%) are left out. Calls come from the whole dose curve; as a rule, active = well fitted cell-killing curve with a large enough effect; inconclusive = small, poorly fitted or top-dose-only effect, or effect the other way; inactive = flat fitted curve, though single readings scatter. Some of the results follow.

experiment: Cell viability qHTS assay in S16 Pmp22-F2sN cells; details: S16 Pmp22-F2sN Schwann cells (luciferase reporters placed in the Pmp22 gene) viability, CellTiter-Glo, 24 h; series mostly up to 57.5 µM; activity change, negative = cytotoxicity: at the top concentration; note: nearly all actives have a fitted effect of over 65% in size
Outline: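 CellTiter-Glo counter-screen, qHTS, 1536-well. Cells: S16(c9) Pmp22-F2sN, 500-1,000/well in DMEM + 10% FBS. Cpd 23 nL pin transfer, 24 h, 37C/5% CO2. Read: luminescence, CCD imager.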
% is set by controls: 0 for no effect and ±100 for the full control effect.

SMILES	activity change, negative = cytotoxicity
COc1ccc(C2=NS(=O)(=O)N(C)C(C(=O)NC(C)c3ccccc3)=C2)cc1OC (stereo not given)	inactive: -23.2%
CC1=C(C(=O)OC2CCCC2)C(c2ccc(Cl)cc2)CC(=O)N1 (stereo not given)	inactive: 27.8%
Cc1cc(C)cc(NC(=O)CN(c2cccc(C)c2C)S(=O)(=O)c2ccccc2)c1	inactive: 0.48%
COc1ccc2c(CNCCc3ccccc3OC)c(C(=O)O)n(Cc3ccc(F)cc3Cl)c2c1	inactive: -0.824%
CSc1cccc(NC(=O)N2CCN(S(=O)(=O)c3ccc4c(ccn4C)c3)CC2)c1	inactive: 2.86%
Cc1cccc(NC(=O)C2CCN(S(=O)(=O)c3c(C)noc3/C=C/c3ccco3)CC2)c1C	inactive: -9.93%
COc1cccc(N2C(=O)CSC23C(=O)N(Cc2ccccc2F)c2ccccc23)c1 (stereo not given)	inactive: 12.2%
CCC(=O)N1CCc2cc(Br)cc(S(=O)(=O)N3CCN(c4cccc(Cl)c4)CC3)c21	inactive: 5.47%
O=C(OCC1CCCO1)c1ccc2c(c1)N(Cc1cccc(F)c1)C(=O)c1ccccc1S2(=O)=O (stereo not given)	inactive: 10.4%
Cc1nc2c(-c3ccc(F)cc3)c(C)nn2c(C)c1CCC(=O)NCc1cccc(Cl)c1	inactive: 0.276%
CCOc1cccc(C2c3[nH]c4ccccc4c3CCN2C(=O)Cc2cccc(OCC)c2OCC)c1 (stereo not given)	inactive: 0.46%
CC1CCc2nc(NC(=O)Cc3ccc(Cl)cc3)sc2C1 (stereo not given)	inactive: 10.4%
Cc1cc2c(cc1S(=O)(=O)CCC(=O)N(C)Cc1ccccc1)OCC(=O)N2	inactive: 5.78%
O=C(c1cnc(N2CCCCC2)c2ccccc12)N1CCN(c2ccc(F)cc2)CC1	inactive: -25%
Fc1ccc(Nc2nc(-c3ccc(F)cc3)c3c(n2)-c2ccccc2OC3)cc1	inactive: 0.829%
COc1cccc(C(=O)Nc2ccc3nc(SCC(=O)N4CCc5ccccc54)sc3c2)c1	inactive: 0.563%
Cc1sc2c(c1C)c(=O)n(-c1ccc(Cl)cc1)c(=O)n2CC(=O)c1ccccc1	inactive: 9.43%
CCOC(=O)C(C)Nc1ncnc2onc(C)c12 (stereo not given)	inactive: 4.2%
CSc1nc(C)cc(Nc2cccc(C(=O)O)c2)n1	inactive: 0.645%
Cc1ccc(-c2nc3scc(CCNS(=O)(=O)c4c(C)noc4C)n3n2)cc1	inactive: -3.4%
COc1cccc(CNC(=O)c2ccc3c(c2)sc2nc(-c4ccccc4)cn23)c1OC	inactive: 3.11%
O=c1[nH]c2ccc(S(=O)(=O)Nc3cc(Cl)ccc3O)cc2o1	inactive: -13.3%
NS(=O)(=O)c1ccc(CCNC(=O)CCn2c(=O)c3cccn3c3cccnc32)cc1	inactive: 22.4%
Cc1cc(Br)ccc1NC(=O)C(NS(=O)(=O)c1cccs1)c1ccccc1 (stereo not given)	inactive: 1.44%

SMILES	activity change, negative = cytotoxicity
COc1ccc(Cl)cc1NC(=O)c1cc2nc(-c3ccc(C)cc3)cc(C(F)(F)F)n2n1	inactive: 7.77%
Cc1cc(F)ccc1NC(=O)CN1C(=O)CCc2cc(S(=O)(=O)N3CCOCC3)ccc21	inactive: -0.636%
CCOC(=O)C1=C(CN2CCCCC2)NC(=O)NC1c1ccc(OC)cc1 (stereo not given)	inactive: -5.6%
Cc1cccc(NC(=O)c2ccc(F)c(S(=O)(=O)N3CCN(c4ccc(F)cc4)CC3)c2)c1	inactive: -22.2%
CCOc1ccccc1NC(=O)c1cn(C2CCCCC2)c(=O)c2c1c1ccccc1n2C	inactive: 0.158%
COc1ccc(CCNC(=O)CCn2c(=O)c3cccn3c3ccc(F)cc32)cc1OC	inactive: -0.605%
Cc1ccc(-c2cn3c(n2)sc2cc(C(=O)NC4CCCCC4)ccc23)cc1	inactive: -4.64%
CC1(C)O[C@H]2[C@@H](O1)[C@@H](C(=O)Nc1cc(F)ccc1F)O[C@@H]1OC(C)(C)O[C@@H]12	inactive: 3.91%
O=C(O)CCSc1nnc(-c2ccc(Cl)cc2Cl)o1	inactive: -3.3%
CCOC(=O)c1ccc(CN(Cc2ccc(Cl)cc2Cl)S(=O)(=O)c2cccc(Cl)c2)cc1	inactive: 7.83%
Cc1cc(-c2ccc(C)c(S(=O)(=O)N(C(C)C)C3CCCCC3)c2)on1	inactive: -5.41%
CC(=O)c1ccc(NC(=O)c2nn(C)c3c2CS(=O)(=O)c2ccccc2-3)cc1	inactive: 2.5%
COc1ccc(-c2nc3n(n2)C(c2cccc(C)c2)C(C(N)=O)=C(C)N3)cc1OC (stereo not given)	inactive: -1.91%
Cc1ccc2nc(N(Cc3cccnc3)C(=O)CCc3ccccc3)sc2c1	inactive: 2.33%
Cc1cccc(-c2cc(C(=O)O)c3c(-c4ccc(F)cc4)[nH]nc3n2)c1	inactive: 0.286%
O=S(=O)(c1ccc(Br)cc1)N1CCn2cccc2C1c1ccc(Br)cc1 (stereo not given)	inactive: -9.06%
COc1ccc(-c2nc(CS(=O)CC(=O)NCc3ccccc3Cl)c(C)o2)cc1OC (stereo not given)	inactive: 9.8%
Cn1c(C(=O)Nc2cccc(Cl)c2)cc2c(=O)n(C)c3ccccc3c21	inactive: 5.48%
Cc1ccc(CNc2nc3nc(C)c(Cl)c(C)n3n2)cc1	inactive: -2.79%
Cc1nn(C)c2c1c(C(F)(F)F)cc(=O)n2C(C)C(=O)NCc1ccccc1 (stereo not given)	inactive: 17.1%
CCOCCc1nn2c(=O)cc(COC(=O)c3ccc4c(c3)OCO4)nc2s1	inactive: -2.88%
CC(C)c1nn2c(=O)cc(COC(=O)COc3ccccc3F)nc2s1	inactive: 18%
CCc1ccccc1NC(=O)CSc1nc2ccccc2nc1Cc1cccc(OC)c1	inactive: 3.54%
O=C(NCc1ccccc1)c1ccc2c(c1)sc1nc(-c3ccc(F)cc3)cn12	inactive: 1.34%

SMILES	activity change, negative = cytotoxicity
COc1cccc(-c2cn3c(n2)sc2cc(C(=O)NCCc4ccccc4)ccc23)c1	inactive: 2.42%
Cc1ccc(-c2cn3c(n2)sc2cc(C(=O)NC4CCCCCC4)ccc23)c(C)c1	inactive: 0.552%
Cc1cccc(NC(c2nnc(-c3ccccc3)o2)c2ccc(F)cc2Cl)c1C (stereo not given)	inactive: -0.767%
Cc1oc2c(c(C)cc3oc(=O)c(CC(=O)NCCc4ccc(Cl)cc4)c(C)c32)c1C	inactive: 5.31%
Cc1ccc(Cl)cc1N1CCN(C(=O)C2CCN(S(=O)(=O)c3c(C)noc3/C=C/c3ccccc3F)CC2)CC1	inactive: -4.18%
CCc1ccccc1NC(=O)Cn1c(=O)oc2ccccc21	inactive: 4.86%
CCOc1ccc(C2CC(=O)c3c([nH]c(C(=O)OC4CCCCCC4)c3C)C2)cc1 (stereo not given)	inactive: -3.4%
COc1ccc(C(=O)NCC(c2cccs2)S(=O)(=O)c2cccs2)cc1 (stereo not given)	inactive: 1.45%
Cc1ccc(NC(=O)[C@H](Cc2ccccc2)N2Cc3ccccc3C2=O)cc1F	inactive: -5.2%
Cc1ccc(S(=O)(=O)Nc2nc3n(n2)C(c2ccc(Cl)cc2)C=C(c2ccccc2)N3)cc1 (stereo not given)	inactive: 0.0671%
O=C(CN1C(=O)CC(c2ccco2)Sc2ccccc21)Nc1ccc(OC(F)(F)F)cc1 (stereo not given)	inactive: 11.8%
COc1ccc(S(=O)(=O)N2CCC(Oc3ccc(-n4cnnn4)cc3)CC2)cc1	inactive: 3.41%
COc1cccc(OC)c1C(=O)NCCc1sc(-c2cccc(F)c2)nc1C	inactive: -4.54%
CCCCNC(=O)c1cccc(NC(=O)c2nsc3ccccc23)c1	inactive: 4.65%
CCOc1ccc2c(c1)c(=O)c(C(=O)c1ccc3c(c1)OCO3)cn2Cc1ccc(F)cc1	inactive: 0.491%
COc1ccccc1N1CCN(c2ncnc3c2c(-c2ccccc2)cn3-c2cccc(Cl)c2)CC1	inactive: 13%
CCc1nn(C(CC)C(=O)NCc2ccc(OC)c(OC)c2)c(=O)c2cc3oc(C)cc3n12 (stereo not given)	inactive: -24.8%
Cc1nn(-c2nc(-c3ccccc3)cc(C(F)(F)F)n2)c(C)c1Cl	inactive: 7.56%
COc1ccc(C(=O)Nc2ccccc2-c2nc3ccccc3s2)cc1OC	inactive: -0.479%
Cc1ccc(C)c(NC(=O)CSc2nccn2-c2cccc(C)c2C)c1	inactive: -12.2%
COc1cccc(CNC(=O)c2cnc3c(-c4ccc(F)cc4)c(C)nn3c2C)c1	inactive: -13.6%
CCc1ccc(C2C(C(=O)Nc3ccccc3OC)=C(C)Nc3c(C(=O)Nc4ccc(C)cc4)cnn32)cc1 (stereo not given)	inactive: -4.85%
CCN(C(=O)c1cn(-c2cccc(OC)c2)c(=O)c2ccccc12)c1ccccc1C	inactive: -1.34%
COc1cc2c(cc1OC)C(c1cccc(Cl)c1)CC(=O)N2 (stereo not given)	inactive: 6.38%

SMILES	activity change, negative = cytotoxicity
COc1ccc(OC)c(NC(=O)c2oc(=O)c3ccccc3c2-c2ccccc2)c1	inactive: -1.93%
O=C(c1ccc(F)cc1)N1CCc2c([nH]c3ccccc23)C1c1ccc(Cl)cc1 (stereo not given)	inactive: -7.63%
CCc1ccc(OCCSc2nc3ccccc3n2CC(=O)N2CCCCC2)cc1	inactive: -17.3%
CCOc1ccc(NCc2cccn2-c2nnc(N3CCC(C(=O)NCc4ccccc4Cl)CC3)s2)cc1	inactive: -9.12%
CC(C)(C)OC(=O)N1CCC(c2c(C(=O)NCc3cccs3)cnn2-c2cccc(F)c2)CC1	inactive: -15.2%
COc1ccc(Cl)cc1NC(=O)N1CCN(S(=O)(=O)c2ccc3c(ccn3C)c2)CC1	inactive: -0.0251%
Clc1ccc(-c2nnn3c2nc(NC2CCCCC2)c2ccccc23)cc1	inactive: 1.13%
CCOc1ccc(Nc2ncnc3c2c(-c2ccccc2)cn3-c2cccc(C)c2)cc1	inactive: -0.275%
CCOc1ccc(C(=O)N(Cc2ccc(C(C)C)cc2)Cc2ccco2)cc1	inactive: -19.3%
COc1cc(NC(=O)c2cccc(Cl)c2Cl)ccc1NC(=O)c1cc2ccccc2o1	inactive: 16.3%
CCS(=O)(=O)N1CCCc2cc(C(=O)Nc3cccc(C(C)=O)c3)ccc21	inactive: -18.6%
CCC(=O)N1CCc2cc(Br)cc(S(=O)(=O)CCC(=O)Nc3cccc(Cl)c3)c21	inactive: -5.89%
CCCn1c2ccc(F)cc2c2nnc(SCCN3CCCCC3)nc21	inactive: -3.38%
CCCc1cnc2c(c1SCC(=O)Nc1ccccc1OCC)c(=O)n(C)c(=O)n2C	inactive: -19.2%
CCCSCCCNC(=O)c1ccc(C)c(NC(=O)c2nsc3ccccc23)c1	inactive: 9.67%
COc1cccc(Cn2nc(SC)c(S(=O)(=O)c3ccccc3)c2N(C(C)=O)C(C)=O)c1	inactive: 3.77%
Cc1cc2c(cc1NS(=O)(=O)c1ccc(Br)cc1)n(C)c(=O)c(=O)n2C	inactive: 4.09%
Cc1ccc(NC(=O)CCCc2nc(-c3ccco3)no2)cc1Cl	inactive: 0.276%
COc1ccc(-n2nnnc2C2CCN(S(=O)(=O)c3cccc(C(F)(F)F)c3)CC2)cc1	inactive: 8.32%
COc1cccc(NC(=O)C(Cc2ccccc2)N2Cc3ccccc3C2=O)c1 (stereo not given)	inactive: 3.41%
COc1ccc(-n2c(SCC(=O)NCc3ccc(Cl)cc3)nc3ccsc3c2=O)cc1	inactive: -2.37%
COc1cccc(-n2c(=O)c3cc(OC)c(OC)cc3n(CC(=O)Nc3ccc(F)cc3)c2=O)c1	inactive: 13.7%
COc1ccc(-c2noc(CCC(=O)N(C)c3cc(Cl)ccc3OC)n2)cc1	inactive: 5.21%
